In publication PMC4336329 (PLoS ONE, 2015):
The campaign covered roughly 310,000 compounds. About 2,200 (0.71%) showed an effect of 50% or more. The effect is printed as a negative number. The list shows a part of the results.

biological target: human ether-à-go-go-related gene (hERG) potassium channel (human, UniProt Q12809); test: primary screen, population patch clamp on CHO cells stably expressing hERG
Sequence (Q12809 whole entry, looked up): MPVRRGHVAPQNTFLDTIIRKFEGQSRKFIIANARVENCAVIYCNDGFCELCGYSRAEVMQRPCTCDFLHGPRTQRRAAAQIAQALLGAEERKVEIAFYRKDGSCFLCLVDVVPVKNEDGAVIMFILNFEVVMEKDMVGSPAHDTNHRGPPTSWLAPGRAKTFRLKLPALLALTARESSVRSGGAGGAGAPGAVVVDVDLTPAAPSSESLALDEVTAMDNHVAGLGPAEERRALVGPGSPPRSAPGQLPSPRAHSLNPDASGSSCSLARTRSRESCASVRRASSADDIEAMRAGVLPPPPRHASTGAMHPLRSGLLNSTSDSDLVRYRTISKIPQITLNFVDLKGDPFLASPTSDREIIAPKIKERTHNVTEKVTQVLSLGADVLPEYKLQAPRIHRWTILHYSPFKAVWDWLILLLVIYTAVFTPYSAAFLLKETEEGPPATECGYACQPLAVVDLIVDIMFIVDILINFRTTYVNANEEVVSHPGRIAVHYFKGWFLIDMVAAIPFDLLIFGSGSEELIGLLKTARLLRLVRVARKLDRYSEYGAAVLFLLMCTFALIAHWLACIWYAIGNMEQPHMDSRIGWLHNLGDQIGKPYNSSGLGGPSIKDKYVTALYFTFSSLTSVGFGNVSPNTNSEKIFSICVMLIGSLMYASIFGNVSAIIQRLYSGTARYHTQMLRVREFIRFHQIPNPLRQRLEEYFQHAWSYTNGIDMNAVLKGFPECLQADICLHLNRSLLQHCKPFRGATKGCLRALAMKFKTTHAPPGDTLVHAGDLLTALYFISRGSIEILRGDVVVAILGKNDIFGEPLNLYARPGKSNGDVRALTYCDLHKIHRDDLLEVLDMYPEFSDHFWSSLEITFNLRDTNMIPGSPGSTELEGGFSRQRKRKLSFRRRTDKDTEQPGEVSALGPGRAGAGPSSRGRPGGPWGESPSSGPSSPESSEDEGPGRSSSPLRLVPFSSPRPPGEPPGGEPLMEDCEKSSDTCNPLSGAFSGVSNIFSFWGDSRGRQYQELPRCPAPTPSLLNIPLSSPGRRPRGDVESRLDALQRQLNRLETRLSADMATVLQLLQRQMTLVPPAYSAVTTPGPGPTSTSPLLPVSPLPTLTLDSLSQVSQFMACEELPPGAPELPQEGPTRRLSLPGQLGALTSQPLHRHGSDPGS

SMILES	hERG current change (%, negative = inhibition) at 1uM
CC1(c2ccc(OC(F)F)cc2)NC(=O)N(CC(=O)Nc2ccc(Cl)cc2F)C1=O (centres unmarked)	-6.7%
COC(=O)CNC(c1ccccc1)c1cc(Br)ccc1NC(=O)CNC(=O)OCc1ccccc1 (centres unmarked)	9.97%
COCCCN1C(=O)/C(=C\c2cccs2)C(C(=O)OC)=C1C	-3.93%
Cn1[nH]c(C(F)(F)F)c(C=Nc2ccc(Cl)cc2)c1=O	7.04%
COc1ccc(OC)c(CNC(=O)CCCn2ccc3cc(S(=O)(=O)N4CCCC4)ccc32)c1	13.3%
Cc1cc(SCC#N)n2nc(C)c(-c3ccccc3)c2n1	14.5%
COC(/C=C/Nc1ccc(Br)cc1)=C(C#N)C#N	-0.86%
CCOCCn1c(SCCc2ccccc2)nc2c1c(=O)[nH]c(=O)n2C	3.5%
O=C(O)c1ccc(CN2C(=O)c3ccccc3S2(=O)=O)cc1	8.66%
Cc1ccc(N=Cc2c(O)n(-c3cc(Cl)ccc3N3CCOCC3)c(=O)c3ccccc23)cc1C	5.4%
Cn1c(SCC(=O)c2ccccc2)nnc1-c1cccs1	4.07%
O=C(COc1ccc2ccc(=O)oc2c1)N1CCc2ccccc21	5.43%
O=c1c2cc(Br)ccc2nc(-c2ccc([N+](=O)[O-])cc2)n1O	19.9%
C=CCn1c(COc2ccccc2)nnc1SCC(=O)N/N=C/c1ccc(C)cc1	-2.01%
Cc1ccc([N+](=O)[O-])c(OCCN2CCc3ccccc3C2)c1.O=C(O)C(=O)O	8.56%
CC(C)c1ccc(OCC(=O)Nc2ccncc2)cc1	10.7%
c1ccc2c(c1)sc1nnnn12	-0.501%
C/C(=N\NS(=O)(=O)c1ccc(Cl)c([N+](=O)[O-])c1)c1ccc(C)o1	11.1%
CCOC(=O)c1c(C)[nH]c(C)c1C(=O)CSc1nc2ccccc2c(=O)n1-c1ccccc1C	6.67%
CC1(C)CC(=O)C(C(N)=NC(=O)c2ccccc2)=C(O)C1	11.5%
CC(=O)Nc1ccc(CN2CCC(CO)(CCOc3ccccc3)CC2)cc1	-43.8%
CCOC(=O)N1CCN(C(=O)CSC2=NS(=O)(=O)c3cc(Cl)ccc3N2)CC1	14.8%

SMILES	hERG current change (%, negative = inhibition) at 1uM
CN(Cc1ccccc1)Cc1nc2c([nH]1)c(=O)n(C)c(=O)n2C	0.239%
CCOC(=O)N1CCN(C(=O)c2ccccc2NC(C)=O)CC1	12.8%
COc1cccc(C(=O)Nc2ccc(N(C)C)cc2)c1OC	15.3%
COc1cc(C(C(=O)NC2CCCCC2)N(Cc2ccco2)C(=O)c2cnccn2)cc(OC)c1OC (centres unmarked)	9.86%
CCCc1nc2ccccc2c(=O)n1CC(=O)c1ccccc1	4.93%
Cc1nnc(SCC(=O)NC(C)(C)C)n1NCc1c(F)cccc1Cl	13%
Cc1ccc(C(=O)Nc2ccccc2C(=O)N2CCCCCC2)cc1	12%
O=[N+]([O-])c1cccc(/C=N/Nc2nc(C(Cl)(Cl)Cl)nc3ccccc23)c1	7.48%
O=C(OC1CCCCC1=O)c1ccc(S(=O)(=O)Nc2ccccc2)cc1 (centres unmarked)	10%
O=C(Cc1ccc(F)cc1)Nc1ccccc1Sc1ccccc1	3.43%
CCOC(=O)Cc1c(Sc2ccccc2)c2cc(C)ccc2n1C	0.574%
O=C(CC1Oc2ccccc2NC1=O)NCCCN1CCN(C2CCCCC2)CC1 (centres unmarked)	10.1%
COc1ccc(CCN(C)C(=O)c2cncc(Br)c2)cc1OC	18.6%
CC(C)Oc1ccc(CNC(=S)N/N=C/c2cccnc2)cc1	6.38%
COC(=O)C(C)Sc1nnc(Cc2cc(=O)[nH]c(=O)[nH]2)n1-c1ccc(OC)cc1 (centres unmarked)	-0.46%
O=C(Nc1cccc([N+](=O)[O-])c1)C12CC3CC(C1)CC(n1cnc([N+](=O)[O-])n1)(C3)C2	-18.7%
COc1ccc(Cl)cc1NC(=O)CN(C)C(=O)CCCc1c[nH]c2ccccc12	7.41%
Cc1cccc(NCc2ccccc2O)c1C	-6.78%
COc1cc2nc(CN3CCC(C(O)(c4ccccc4)c4ccccc4)CC3)[nH]c(=O)c2cc1OC	4.62%
Cc1c(C(=O)Nc2ccccc2)cnn1-c1ccccc1	6.8%
Cc1cc(C)c(S(=O)(=O)n2nc(C)c(Br)c2C)c(C)c1	3.15%
CN(C)C(CNC(=O)c1ccc([N+](=O)[O-])cc1Cl)c1ccco1 (centres unmarked)	15.7%

SMILES	hERG current change (%, negative = inhibition) at 1uM
O=C(N/N=C/c1coc2ccccc2c1=O)c1ccccc1	14.7%
O=C1COc2ccc(C(=O)COc3ccc([N+](=O)[O-])cc3)cc2N1	8.56%
COc1ccc(C(=O)C2CCCN(CCO)C2)c(C)c1 (centres unmarked)	12.5%
NC(CSCc1ccccc1Cl)C(=O)O (centres unmarked)	0.471%
COc1ccccc1Cn1c(C)nc2ccccc21	14%
O=C(COc1ccc(Br)cc1CO)Nc1ccccc1	7.6%
CN(C)S(=O)(=O)c1cccc(NC(=O)CN2C(=O)NC(Cc3c[nH]c4ccccc34)C2=O)c1 (centres unmarked)	15.5%
CC(C)c1ccc(NC(=O)CN2CCN(c3ccccn3)CC2)cc1	3.18%
CC(C)(C)C(=O)CN1C(=O)NC2(CCCc3ccccc32)C1=O (centres unmarked)	11.2%
O=C1N[C@@H](Cc2ccccc2)C(=O)N2[C@H]1C[C@]1([C@]34C[C@H]5C(=O)N[C@@H](Cc6ccccc6)C(=O)N5[C@H]3N(S(=O)(=O)c3ccccc3)c3ccccc34)c3ccccc3N(S(=O)(=O)c3ccccc3)[C@H]21	17.4%
CSc1nc(Sc2ccccc2Cl)c2ccccc2n1	15.7%
CC1Cc2ccccc2N1S(=O)(=O)c1cnc(Cl)c(Cl)c1 (centres unmarked)	4.04%
CC(C)(C)c1cc(Cc2ccccc2)[nH]n1	11.6%
COc1ccccc1CNCc1cccc(Oc2ccccc2)c1	7.52%
COc1ccccc1NC(=O)CCCN1C(=O)C(c2ccccc2)Oc2cccnc21 (centres unmarked)	6.76%
CC(=O)Nc1ccc(NC(=O)C2C3CCC(C3)C2C(=O)O)cc1 (centres unmarked)	15.3%
CC[N+](CC)(CC)CCCOC(=O)C(O)(c1ccccc1)C1CCCCC1.[Cl-] (centres unmarked)	6.29%
CCCC(=O)Nc1c(C)nn(C(=O)CCC)c1C	7.41%
CCOc1ccc(NS(=O)(=O)c2ccc(C(=O)NCCCN3CCCC3=O)cc2)cc1	5.72%
CCOc1cccc(-c2c(C(=O)N/N=C(\C)c3cccs3)nnn2-c2nonc2N)c1	8.25%
CCOc1ccc(S(=O)(=O)N2CCCC(C(=O)NCc3cccnc3)C2)cc1C (centres unmarked)	7.59%
COc1ccc(/C=C(\NC(=O)c2ccc(C)cc2)C(=O)NCCN2CCOCC2)cc1	-33.3%

SMILES	hERG current change (%, negative = inhibition) at 1uM
Cn1ncc(C#N)c1NC(=O)c1cc(-c2ccccc2Cl)on1	9.4%
CCOC(=O)c1c(C)[nH]c(C)c1S(=O)(=O)NC(C)Cc1ccco1 (centres unmarked)	26.8%
CCCCNS(=O)(=O)c1ccc(S(=O)(=O)n2cnc3ccccc32)cc1	18%
CC(C)(C)OC(=O)NCCCC[C@H](NC(=O)c1[nH]cnc1C(=O)N[C@@H](Cc1ccccc1)C(=O)OC(C)(C)C)C(=O)OC(C)(C)C	2.34%
CCSc1nnc(NC(=O)C2Cc3ccccc3CN2C(=O)c2ccco2)s1 (centres unmarked)	10.8%
Cc1ccc(S(=O)(=O)Nc2cc3c4c(c2)CCN4C(=O)CC3)cc1	7.2%
CCc1cccc(OCC(=O)Nc2ccc(S(=O)(=O)N3CCCC3)cc2)c1	4.83%
Cc1nn(-c2ccccc2)c2nc(N)c(C#N)c(-c3ccc(O)c(O)c3)c12	11.3%
CCOC(=O)c1ccc(NC(=O)C2C3CCC(C3)C2C(=O)O)cc1 (centres unmarked)	13.5%
CCOC(=O)/C=C/[C@H]1CCc2cccc(C)c2O1	14.4%
Cc1cc(C)n(S(=O)(=O)c2ccccc2[N+](=O)[O-])n1	15.3%
COCCn1c(C)cc(C(=O)COC(=O)c2ccc(-n3nc(C)cc3C)cc2)c1C	12.6%
COc1ccc(S(=O)(=O)CC(=O)Nc2ccccc2Cl)cc1	13.3%
C=C(C)CSc1nnc2n(C)c(=O)c3c4c(sc3n12)CCC4	11%
CN(CC(=O)NC1CCCCCC1)S(=O)(=O)c1ccc2c(c1)n(C)c(=O)c(=O)n2C	10.7%
Cc1c(C(=O)NCc2ccco2)sc2nc(-c3ccccc3)cn12	1.11%
N#CC(C#N)=C1C(=O)N(CCN2CCCCC2)c2ccccc21	3.75%
CCc1ccccc1N=C1S/C(=C/c2ccccc2OCC(=O)N2CCOCC2)C(=O)N1C	3.66%
O=c1c2ccccc2c(=O)n(-c2ccccc2)n1CCCCBr	9.19%
CCOC(=O)C(CCCOc1ccccc1C)C(=O)OCC	11.2%
